Our source for the binding signal values is article PMC5700166.

What all share (assay): protein-binding microarray (PBM)
What all share (settings): PBM: ~300 nM protein, 6 mM HEPES pH 7.8, 80 mM KCl, 0.5 mM EDTA, 0.5 mM EGTA, 6% glycerol, 35 ng/ul poly-dIdC, 1% milk, 1 h, room temperature; Ap Aiptasia and Nv Nematostella (sea anemones) / Co Capsaspora / Aq Amphimedon (sponge) / Dm Drosophila / Hu human; RHD is the Rel homology domain; high values mean tight binding; most listed sequences are background and not binding sites; double strand, one strand shown

For assay [1], the target named is T1, GST-Ap-NF-kB RHD (UniProt A0A913YAJ5).
T1 sequence: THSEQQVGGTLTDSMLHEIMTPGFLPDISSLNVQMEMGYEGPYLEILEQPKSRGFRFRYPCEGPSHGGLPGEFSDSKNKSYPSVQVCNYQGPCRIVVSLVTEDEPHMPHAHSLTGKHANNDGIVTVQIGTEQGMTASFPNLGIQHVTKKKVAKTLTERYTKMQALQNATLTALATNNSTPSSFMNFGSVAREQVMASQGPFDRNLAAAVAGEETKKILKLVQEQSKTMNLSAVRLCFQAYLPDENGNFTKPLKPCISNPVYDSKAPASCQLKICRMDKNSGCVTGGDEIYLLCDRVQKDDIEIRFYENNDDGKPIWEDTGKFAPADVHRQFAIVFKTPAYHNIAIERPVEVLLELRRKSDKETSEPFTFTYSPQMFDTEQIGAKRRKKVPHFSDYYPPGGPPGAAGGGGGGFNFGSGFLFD

Assay [2] deals with T2, GST-Nv-NF-kB (Cys allele) (UniProt E5G601).
T2 sequence: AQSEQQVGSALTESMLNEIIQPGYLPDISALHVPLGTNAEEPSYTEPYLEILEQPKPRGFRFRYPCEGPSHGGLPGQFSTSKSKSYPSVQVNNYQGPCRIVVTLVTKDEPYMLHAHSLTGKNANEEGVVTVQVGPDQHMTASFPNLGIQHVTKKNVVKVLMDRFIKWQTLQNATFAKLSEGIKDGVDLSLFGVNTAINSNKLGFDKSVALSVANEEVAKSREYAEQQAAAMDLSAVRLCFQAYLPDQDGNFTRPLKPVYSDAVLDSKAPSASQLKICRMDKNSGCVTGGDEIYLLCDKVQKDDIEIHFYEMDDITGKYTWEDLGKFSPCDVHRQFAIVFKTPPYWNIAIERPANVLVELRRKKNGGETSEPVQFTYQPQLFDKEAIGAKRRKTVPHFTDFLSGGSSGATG

Assay [3] addresses T3, GST-Co-NF-kB (UniProt F1ARL5).
T3 sequence: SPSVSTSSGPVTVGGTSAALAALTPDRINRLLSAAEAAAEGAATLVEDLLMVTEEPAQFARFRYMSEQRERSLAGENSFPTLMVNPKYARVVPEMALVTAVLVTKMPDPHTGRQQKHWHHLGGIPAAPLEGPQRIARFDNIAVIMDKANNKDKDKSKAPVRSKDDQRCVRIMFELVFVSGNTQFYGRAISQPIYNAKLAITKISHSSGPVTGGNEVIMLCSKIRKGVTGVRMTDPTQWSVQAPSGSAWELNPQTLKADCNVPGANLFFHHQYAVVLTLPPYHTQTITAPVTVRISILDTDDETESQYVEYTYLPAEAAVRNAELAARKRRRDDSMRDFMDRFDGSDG

Assay [4] concerns the target T4, GST-Dm-Relish (UniProt Q94527).
T4 sequence: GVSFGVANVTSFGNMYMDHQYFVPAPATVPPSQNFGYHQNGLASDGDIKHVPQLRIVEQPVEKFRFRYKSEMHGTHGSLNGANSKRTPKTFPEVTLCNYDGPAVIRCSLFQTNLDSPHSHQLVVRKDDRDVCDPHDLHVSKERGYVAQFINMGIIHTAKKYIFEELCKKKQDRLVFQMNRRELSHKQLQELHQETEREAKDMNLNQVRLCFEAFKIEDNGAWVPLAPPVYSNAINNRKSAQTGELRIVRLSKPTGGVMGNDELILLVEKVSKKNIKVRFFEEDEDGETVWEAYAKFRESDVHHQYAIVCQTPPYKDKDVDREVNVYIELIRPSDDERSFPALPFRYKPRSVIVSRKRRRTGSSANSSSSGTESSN

Assay [5] addresses T5, GST-Aq-NF-kB (UniProt A9Y5G7).
T5 sequence: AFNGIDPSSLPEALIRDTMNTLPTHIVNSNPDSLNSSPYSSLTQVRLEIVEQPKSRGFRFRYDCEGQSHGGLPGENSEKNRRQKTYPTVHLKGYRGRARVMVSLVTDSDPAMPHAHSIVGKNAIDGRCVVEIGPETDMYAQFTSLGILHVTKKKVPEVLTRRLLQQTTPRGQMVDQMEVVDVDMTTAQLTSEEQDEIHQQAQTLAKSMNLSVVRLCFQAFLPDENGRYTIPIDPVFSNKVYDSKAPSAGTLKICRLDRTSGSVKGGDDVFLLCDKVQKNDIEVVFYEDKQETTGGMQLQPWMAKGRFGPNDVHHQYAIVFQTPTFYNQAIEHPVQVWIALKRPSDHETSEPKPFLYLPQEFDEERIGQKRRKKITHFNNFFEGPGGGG

The entries are a selection whose mix differs from that of the whole data set. The list includes weakly bound sequences.

Consider “CCGATTAACATCAATCGGTCTACTGATGTTAATCGGGTCTTGATTCGCTTGACGCTGCTG”, for which the binding signal in assay [1] was -0.227 z-score; in assay [2] it was -0.665 z-score; in assay [3], 0.0423 z-score; in assay [4] it was -1.19 z-score; in assay [5], -0.487 z-score.

“CCGATTAACATCATTTCAGCCCTTGATGTTAATCGGGTCTTGATTCGCTTGACGCTGCTG”: the binding signal in assay [1] is -0.39 z-score; in assay [2] it was -0.187 z-score; in assay [3] it was 0.441 z-score; in assay [4] it was -0.561 z-score; in assay [5], -0.221 z-score.

Consider “CCGATTAACATCAGTAATCAATTTGATGTTAATCGGGTCTTGATTCGCTTGACGCTGCTG”, for which the binding signal was -0.9 z-score in assay [1]; 0.469 z-score in assay [2]; -0.303 z-score in assay [3]; -0.0731 z-score in assay [4]; -0.621 z-score in assay [5].

As to “CCGATTAACATCAGGGTTCAGGCTGATGTTAATCGGGTCTTGATTCGCTTGACGCTGCTG”, the binding signal in assay [1] was 0.115 z-score; in assay [2], 0.148 z-score; in assay [3] it was -0.633 z-score; in assay [4] it was 0.424 z-score; in assay [5], -0.362 z-score.

Regarding “CCGATTAACATCATGTGCAGTCTTGATGTTAATCGGGTCTTGATTCGCTTGACGCTGCTG”, the binding signal in assay [1] is -0.0449 z-score; in assay [2], 0.322 z-score; in assay [3] it was -0.51 z-score; in assay [4], 0.0197 z-score; in assay [5], -0.188 z-score.

As for “CCGATTAACATCAAAAATATTAGTGATGTTAATCGGGTCTTGATTCGCTTGACGCTGCTG”, the binding signal in assay [1] was -0.512 z-score; in assay [2] it was -0.362 z-score; in assay [3], 0.308 z-score; in assay [4], 0.569 z-score; in assay [5], -0.0225 z-score.

Take “CCGATTAACATCAAGTATCTCGTTGATGTTAATCGGGTCTTGATTCGCTTGACGCTGCTG”: the binding signal is -0.718 z-score in assay [1]; 0.37 z-score in assay [2]; 0.00372 z-score in assay [3]; -0.619 z-score in assay [4]; -0.577 z-score in assay [5].

With “CCGATTAACATCAGGAATTGGGATGATGTTAATCGGGTCTTGATTCGCTTGACGCTGCTG”, the binding signal came to 0.594 z-score in assay [1]; 0.519 z-score in assay [2]; 0.621 z-score in assay [3]; 0.251 z-score in assay [4]; 0.329 z-score in assay [5].

With “CCGATTAACATCACCGTTTAGGTTGATGTTAATCGGGTCTTGATTCGCTTGACGCTGCTG”, the binding signal was 0.0382 z-score in assay [1]; 0.291 z-score in assay [2]; -0.242 z-score in assay [3]; 0.731 z-score in assay [4]; 0.0671 z-score in assay [5].

On to “CCGATTAACATCACCCAACTATTTGATGTTAATCGGGTCTTGATTCGCTTGACGCTGCTG”, for which the binding signal in assay [1] was 0.233 z-score; in assay [2] it was -0.392 z-score; in assay [3], 0.464 z-score; in assay [4] it was 0.434 z-score; in assay [5], 0.351 z-score.

As to “CCGATTAACATCACGACTAGTTCTGATGTTAATCGGGTCTTGATTCGCTTGACGCTGCTG”, the binding signal in assay [1] was -0.843 z-score; in assay [2], -0.381 z-score; in assay [3], -0.713 z-score; in assay [4], -0.614 z-score; in assay [5], -0.42 z-score.

As to “CCGATTAACATCAACGTTCAGGTTGATGTTAATCGGGTCTTGATTCGCTTGACGCTGCTG”, the binding signal is -0.735 z-score in assay [1]; 0.524 z-score in assay [2]; -0.625 z-score in assay [3]; -0.807 z-score in assay [4]; -0.635 z-score in assay [5].

Consider “CCGATTAACATCACTGCTACGTATGATGTTAATCGGGTCTTGATTCGCTTGACGCTGCTG”, for which the binding signal is -0.596 z-score in assay [1]; -0.889 z-score in assay [2]; -0.36 z-score in assay [3]; -0.0597 z-score in assay [4]; -0.21 z-score in assay [5].
